Laboratory results: patent CN117247457A (SANYOU BIO INC, dated 2023)

Molecular target: T1, 人PD-L1 expressed on cells (huPD-L1-CHO-S细胞) (human, UniProt Q9NZQ7)
T1 construct: whole, on cells; also called CD3L-PD-L1-CHO细胞 (reporter assay); 细胞上表达的PD-L1
Experiment: FACS blocking: antibody on huPD-L1-CHO-S cells, then biotinylated PD-1-His (1 ug/mL), PE-streptavidin

T1 sequence (Q9NZQ7 19-290): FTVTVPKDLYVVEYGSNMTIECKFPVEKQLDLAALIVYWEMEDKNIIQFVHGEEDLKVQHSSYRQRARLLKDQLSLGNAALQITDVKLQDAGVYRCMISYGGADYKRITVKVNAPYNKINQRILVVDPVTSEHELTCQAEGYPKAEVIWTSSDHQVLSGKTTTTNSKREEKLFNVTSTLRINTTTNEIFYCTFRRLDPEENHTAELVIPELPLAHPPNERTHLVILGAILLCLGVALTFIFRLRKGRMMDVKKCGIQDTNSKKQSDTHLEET

B1: 抗人PD-L1抗体D21-4 (VHH PD-L1-huFc) (Fc fusion)
chain: EVQLVESGGGLVQPGGSLRLSCAASRTDRNINTMHWYRQAPGKGREWVGTIFIDLNTIVTDSVKGRFTISRDNAKNTLYLQMNTLRAEDTAVYYCAADVSGYGRAWGQGTTVTVSS[left out - human IgG1 Fc]
notes: also called 对照抗体D21-4
- IC50: 6.64 nM
